{
  "source": "ChEMBL document CHEMBL1157539",
  "about": "“Thousands of chemical starting points for antimalarial lead identification” (Nature, 2010)",
  "note": "The full ranking holds about 13,000 compounds; the median of “IFI” is about 4, and the highest 2% start at about 17. Some of the results follow.",
  "data": [
    {"experiment": "GSK_TCMDC: Inhibition Frequency Index (IFI). The number of non-kinase HTS assays where a compound showed > 50 % inhibition, expressed as a percentage of the number of such assays in which the compound was tested (-0 is zero)", "format": "functional", "units": {"IFI": "%"}, "values": [
      {"smiles": "CC(CN1CCN(C)CC1)C(=O)Nc1cccc(-c2ccc(-c3nc4cc(C(F)(F)F)ccc4[nH]3)cc2)c1", "note": "(stereo not given)", "IFI": 4.55},
      {"smiles": "CCCCCCNc1cc(C)nc2ccc(OC)cc12", "IFI": 1.48},
      {"smiles": "COC(=O)c1cccc(C#CCCOCCCCCCNC[C@H](O)c2cc(Cl)c(N)c(Cl)c2)c1", "IFI": 6.06},
      {"smiles": "CC(C)CCn1c(Sc2ccc(C#N)c([N+](=O)[O-])c2)nnc1-c1ccc(N(C)C)cc1", "IFI": 5.63},
      {"smiles": "OC1=C2C(=Nc3ccccc3SC2c2ccccc2)c2ccccc21", "note": "(stereo not given)", "IFI": 5.04},
      {"smiles": "CC1(C)N=C(N)N=C(N)N1c1ccc(Cl)cc1", "IFI": 1.46},
      {"smiles": "CC(CON1C(N)=NC(N)=NC1(C)C)Cc1ccc(Cl)cc1Cl", "note": "(stereo not given)", "IFI": 7.3},
      {"smiles": "Cc1ccc(NC(=O)c2nc(N3CCN(c4ccncc4)CC3)ccc2Cl)cc1F", "IFI": 6.9},
      {"smiles": "Cc1cc(N[C@@H](CC(C)C)C(=O)NCc2cccc(F)c2)nc(NCCc2ccccc2)n1", "IFI": 17.1},
      {"smiles": "Cc1noc(C)c1-c1cccc(CNCc2ccc(-c3cccc(-c4nc5cc(C(F)(F)F)ccc5[nH]4)c3)cc2)c1", "IFI": 6.93},
      {"smiles": "Cc1nc(C)c(CC(=O)Nc2ccc(-c3ccc(-c4nc5cc(C(F)(F)F)ccc5[nH]4)s3)cc2)s1", "IFI": 12.3},
      {"smiles": "O=c1c2ccccc2[nH]c2nc3ccccc3c(Nc3ccccc3)c12", "IFI": -0},
      {"smiles": "Cc1ccc(Nc2ccnc(Nc3ccc(C)c(F)c3)n2)cc1O", "IFI": 8.7},
      {"smiles": "CCN(CC)CCN(Cc1ccc(-c2ccc(C(F)(F)F)s2)cc1)C(=O)Cn1c(CCc2cccc(F)c2F)nc(=O)c2ccccc21", "IFI": 2.9},
      {"smiles": "Cn1c2c(c3ccccc31)CN(CCC1(c3ccc(Cl)c(Cl)c3)CN(C(=O)c3ccccc3)CCO1)CC2", "note": "(stereo not given)", "IFI": 5.67},
      {"smiles": "CCOC(=O)c1ccc(NC(=O)Nc2cccc(-c3ccc(-c4nc5cc(C(F)(F)F)ccc5[nH]4)cc3)c2)cc1", "IFI": 3},
      {"smiles": "CCc1c(C)nc(-n2nc(C)cc2NC(=O)C(CC)c2ccccc2)[nH]c1=O", "note": "(stereo not given)", "IFI": 11.8},
      {"smiles": "CN(C)Cc1ccc(-c2ccc3ccnc(N)c3c2)cc1", "IFI": 4.9},
      {"smiles": "Cc1cccc2nc(C(=O)Nc3nc(CN4CCC(C)CC4)cs3)cn12", "IFI": 4.41},
      {"smiles": "CC(C)CC(=O)N(Cc1ccc(-c2ccc(CNC3Cc4ccccc4C3)cc2)cc1)C1CCNCC1", "IFI": 6.47},
      {"smiles": "Cc1ccc(NC(=O)c2cccc(C#N)c2)cc1-c1ccc(C(=O)Nc2ccncc2)cc1", "IFI": 24.6},
      {"smiles": "Cc1cc(C(F)(F)F)n2nc(C(=O)N(C)Cc3cncn3Cc3ccc(F)cc3)cc2n1", "IFI": 11.7},
      {"smiles": "O=S(=O)(/C=C/c1ccccc1)N(Cc1ccc(-c2ccc(CNCCc3ccccc3)cc2)cc1)CC1CCCCN1", "note": "(stereo not given)", "IFI": 11.7},
      {"smiles": "Cc1ccccc1CNc1noc(-c2sccc2Br)n1", "IFI": 7.46},
      {"smiles": "COc1ccc(-c2csc3nc(C)nc(Cl)c23)cc1OC", "IFI": 2.59},
      {"smiles": "CO/C(=C\\C=C\\c1cc2cc(Cl)ccc2[nH]1)C(=O)NCCCN1CCN(c2cc(Cl)ccc2OC)CC1", "IFI": 10.9},
      {"smiles": "CC[C@H](C)CNC(=O)c1ccnc(-c2cccc(CN(C)C3CCN(C)CC3)c2)c1", "IFI": -0},
      {"smiles": "O=C(Nc1cccc(C(F)(F)F)c1)NC1CCN(c2ccnc3ccccc23)CC1", "IFI": 3.03},
      {"smiles": "O=C(Nc1ccc(-c2cccc(-c3nc4cc(C(F)(F)F)ccc4[nH]3)c2)cc1)c1ccoc1", "IFI": 7.08},
      {"smiles": "O=C(Cc1n[nH]c(=O)c2ccccc12)Nc1cccc(C(=O)Nc2cccc(C(F)(F)F)c2)c1", "IFI": 1.41},
      {"smiles": "Cc1[nH]c2c(C)cccc2c1C1CCN(CCC2CCN(C(=O)/C=C/c3ccc(Cl)c(Cl)c3)CC2)CC1", "IFI": 7.14},
      {"smiles": "Cc1nc(-c2nc(N3CCC(O)CC3)ncc2-c2ccsc2)sc1C", "IFI": 3.45},
      {"smiles": "CC(Nc1ccc2c(c1)OCCO2)C(=O)Nc1cc(C(F)(F)F)ccc1N1CCOCC1", "note": "(stereo not given)", "IFI": 6.25},
      {"smiles": "CNCC(C)(C)c1nc(-c2ccc(Cl)c(O)c2)c(-c2ccncc2)[nH]1", "IFI": 2.17},
      {"smiles": "CN1CCN(c2cc(NC(=O)c3ccc(-c4ccc(C#N)cc4)cc3)ccc2Cl)CC1", "IFI": 3.74},
      {"smiles": "N=C(N)NN=Cc1cc([N+](=O)[O-])ccc1Sc1ccccc1CO", "IFI": 3.76},
      {"smiles": "CCOc1ccc(-c2nonc2NC(=O)c2ccccc2)cc1OCC", "IFI": 0},
      {"smiles": "COc1cc(CCNc2nc(NCc3cccc4ccccc34)nc(N3CCC(N)CC3)n2)ccc1O", "IFI": 6.06},
      {"smiles": "C=CC[C@H](NC(=O)c1ccc(NS(=O)(=O)c2ccc3nc(N)[nH]c(=O)c3c2)cc1)C(=O)OCCCC", "IFI": 2.86},
      {"smiles": "Cc1ccc(Nc2nc3cc(Nc4ccnc(Nc5ccc(CS(C)(=O)=O)cc5)n4)ccc3o2)cc1", "IFI": 8.89},
      {"smiles": "Cc1cccc2nc(-c3ccc(-c4cccc(CNCCNC(=O)c5ccnn5C)c4)cc3)[nH]c12", "IFI": 3.96},
      {"smiles": "O=C(NCC1CC1)C1CCN(C(c2ccccc2)c2nc3ccccc3s2)CC1", "note": "(stereo not given)", "IFI": 0.68},
      {"smiles": "CCOc1ccc2c(c1)C(C)(c1ccc3c(c1)C(C)CC(C)(C)N3)CC(C)(C)N2", "note": "(stereo not given)", "IFI": 5.8},
      {"smiles": "CCCCNCc1ccc(-c2nc(CN(CCCn3ccnc3)C(=O)Nc3ccc(CC)cc3)cs2)cc1", "IFI": 6.71},
      {"smiles": "Cc1nn(-c2ccccc2)nc1C(=O)N(Cc1ccc(-c2ccc(CNCCc3ccc(S(C)(=O)=O)cc3)cn2)cc1)C(C)CN(C)C", "note": "(stereo not given)", "IFI": 6.99},
      {"smiles": "COc1ccc(Nc2ccnc3cc(Cl)ccc23)cc1OC", "IFI": 8.33},
      {"smiles": "COc1ccc(C)cc1NC(=O)CSc1nc2cccnc2n1C1CCCCC1", "IFI": 2.13},
      {"smiles": "CN(C)Cc1c(O)ccc2[nH]c(-c3ccc(OC(F)(F)F)cc3)nc12", "IFI": 2.8},
      {"smiles": "Cc1sc2ncnc(Sc3nnc(N)s3)c2c1C", "IFI": 5.04},
      {"smiles": "CC(C)COc1cc(C(=O)Nc2cnc3ccccc3c2)ccc1[N+](=O)[O-]", "IFI": 3.03},
      {"smiles": "Cc1cccc2nc(-c3cccc(-c4ccc(CN5CCN(CCO)CC5)cc4)c3)[nH]c12", "IFI": 3.92},
      {"smiles": "COc1ccc(CCN2CCC(Nc3nc4ccccc4n3CCc3ccc(OC)cc3)CC2)cc1", "IFI": 6.02},
      {"smiles": "O=C(N[C@H]1CCN(Cc2ccc(OCCN3CCCC3)c(Cl)c2)C1)c1ccc(Cl)c(Cl)c1", "IFI": 4.17},
      {"smiles": "CCCCOc1c(CCNCCCCNCCc2cc(F)c3ccccc3c2OCCCC)cc(F)c2ccccc12", "IFI": 19.6},
      {"smiles": "CCCCNc1cc(C)nc(NCc2ccccc2)n1", "IFI": 9.72},
      {"smiles": "c1ccc(COc2ccc(Cn3ccc(-c4ccc(-n5ccnc5)cc4)n3)cc2)cc1.c1ccc(COc2ccc(Cn3nccc3-c3ccc(-n4ccnc4)cc3)cc2)cc1", "IFI": 2.52},
      {"smiles": "COc1cccc(CN2CCCN(Cc3cccc(NC(=O)c4ccc(-c5ccccc5)cc4)c3)CC2)c1", "IFI": 6.9},
      {"smiles": "c1ccc(-c2cc(NCCNc3cc(-c4ccccc4)nc4ccccc34)c3ccccc3n2)cc1", "IFI": 0},
      {"smiles": "O=C(Nc1cccc(-c2ccc(-c3nc4cc(C(F)(F)F)ccc4[nH]3)cc2)c1)c1ccncc1", "IFI": 7.02},
      {"smiles": "Cc1[nH]c2ccccc2c1CC1CCN(CC2CCN(C(=O)/C=C/c3ccc(Cl)c(Cl)c3)CC2)CC1", "IFI": 1.46},
      {"smiles": "O=C(/C=C/c1ccc(Cl)c(Cl)c1)NCCCCCN1CCC(NC(=O)Nc2ccc([N+](=O)[O-])cc2)CC1", "IFI": 6.62},
      {"smiles": "N#Cc1ccc(C=CC(=O)NC2CCC(CCN3CCc4ccc(-c5cnccn5)cc4CC3)CC2)cc1", "note": "(stereo not given)", "IFI": 6.67},
      {"smiles": "CO/C(=C\\C=C\\c1cc2cc(Cl)c(Cl)cc2[nH]1)C(=O)NC1CC2CCCC(C1)N2C", "note": "(stereo not given)", "IFI": 13.1},
      {"smiles": "N=C(NCCCCC1CCCCC1)c1cccc(C(=N)NCCCCC2CCCCC2)n1", "IFI": 19.9},
      {"smiles": "CCCC1N=C(N)N=C(N)N1c1ccc(Cl)cc1", "note": "(stereo not given)", "IFI": -0},
      {"smiles": "Cn1nc(C(F)(F)F)cc1-c1ccc(C(=O)Nc2ccc3c(c2)CNCC3(C)C)s1", "IFI": 6.25},
      {"smiles": "O=C(NCC1CCN(Cc2ccc(F)cc2)C1)c1cc(-c2cccc(C(F)(F)F)c2)cs1", "note": "(stereo not given)", "IFI": 7.55},
      {"smiles": "CCCCn1c(-c2ccco2)nc2c(c(=O)c3ccccc3n2C)c1=O", "IFI": 0},
      {"smiles": "Cc1cc(N)c2cc(NC(=O)/C=C/c3ccc([N+](=O)[O-])cc3)ccc2n1", "IFI": 3.47},
      {"smiles": "N=C(N)Nc1nccc(NCc2ccccc2)n1", "IFI": 5.3},
      {"smiles": "COc1ccc(Nc2ncc(Cl)c(Nc3cccnc3C(N)=O)n2)cc1N1CCN(C)CC1", "IFI": 11.5},
      {"smiles": "CCNc1cc(C(=O)N[C@@H](Cc2ccccc2)[C@H](O)CNC23CCC(CC2)C3)cc(N2CCCCS2(=O)=O)c1", "IFI": 2.29},
      {"smiles": "O=C(Nc1ccccc1)c1nn(CCCN2CCC(N3CCCC3)CC2)cc1-c1ccc(Cl)c(Cl)c1", "IFI": 10.1},
      {"smiles": "CCc1ccc(NC(=O)N(CCCn2ccnc2)Cc2csc(-c3ccc(CNCc4ccccc4)cc3)n2)cc1", "IFI": 5.48},
      {"smiles": "O=C(Cn1c(CCc2cccc(F)c2F)nc(=O)c2ccccc21)N(CCN1CCCCC1)Cc1ccc(-c2ccc(C(F)(F)F)cc2)cc1", "IFI": 8.09},
      {"smiles": "O=C(/C=C/c1ccccc1Cl)NC1CCC(CN2CCC(c3c[nH]c4ccncc34)CC2)CC1", "note": "(stereo not given)", "IFI": 1.41},
      {"smiles": "CCNc1cc(C)nc(Nc2ccc(C)cc2)n1", "IFI": 4.29},
      {"smiles": "CC(C)(C)c1ccc(NC(=O)c2ccc(CN3CCCN(CC4CCCCC4)CC3)cc2)cc1", "IFI": 13.5},
      {"smiles": "CNc1ccc(CNCc2ccc(-c3ccc(-c4nc5cc(F)ccc5[nH]4)cc3)cc2)cc1", "IFI": 15.8},
      {"smiles": "CCN(CC)c1ccc(C=CC(=O)NCCN2CCC(N(C)C3CCCCC3C)CC2)cc1", "note": "(stereo not given)", "IFI": 5},
      {"smiles": "OCC1CCN(Cc2cccc(-c3cccc(-c4nc5cc(C(F)(F)F)ccc5[nH]4)c3)c2)CC1", "IFI": 5.83},
      {"smiles": "O=S(=O)(c1csc2ccccc12)N(CCC(O)(C(F)(F)F)C(F)(F)F)Cc1cccc(O)c1", "IFI": 1.45},
      {"smiles": "O=C1CCCN1CCCNCc1ccc(-c2cccc(-c3nc4cc(F)ccc4[nH]3)c2)cc1", "IFI": 2.94},
      {"smiles": "CC(C)(C)c1ccc(OCCCON2C(=N)N=C(N)NC2(C)C)c(C(C)(C)C)c1", "IFI": 13.3},
      {"smiles": "COC(=O)c1cccc(CNCc2cccc(-c3cccc(-c4nc5ccccc5[nH]4)c3)c2)c1", "IFI": 10.1},
      {"smiles": "COc1cc2nc(N(C)Cc3cccc(I)c3)nc(N)c2cc1OC", "IFI": 1.6},
      {"smiles": "CCCCc1ccc(Cc2cnc3nc(N)nc(N)c3c2C)cc1", "IFI": 5.71},
      {"smiles": "N=c1n(CCN2CCCCC2)c2ccccc2n1CC(=O)c1cccc([N+](=O)[O-])c1", "IFI": 1.4},
      {"smiles": "CC(C)CN1CCCN(Cc2cccc(NC(=O)c3ccc(Cl)c(Cl)c3)c2)CC1", "IFI": 2.03},
      {"smiles": "COc1ccc2nccc([C@@H](O)CN3C4CCC3CC(NCc3ccc5c(n3)NC(=O)CS5)C4)c2n1", "note": "(stereo not given in full)", "IFI": 2.86}
    ]}
  ]
}
